Measurements reported in PubChem BioAssay AID1963576 (National Center for Advancing Translational Sciences (NCATS), 2024).
The whole screen tested about 46,000 compounds, of which about 60 (0.1%) were called active. About 3% were inconclusive and are not listed. Calls come from the whole dose curve; as a rule, active = well fitted inhibition curve with a large enough effect; inconclusive = small, poorly fitted or top-dose-only effect; inactive = no such curve, though single readings can be large or run the other way. This is one part of the list.

Assay: Primary qHTS assay for Inhibitors of ovarian cancer metastasis using an organotypic tumor microenvironment (TME) model.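 For activity change, negative = inhibition: plate controls were DMSO wells for no effect and tomatine positive control wells for full effect.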 Note: nearly all actives have a fitted effect of over 65% in size.
Details: SKOV3ip1-GFP adhesion/invasion on 3D omental model, fluorescence; series mostly up to 45.8 µM; activity change, negative = inhibition: at the top concentration
In short: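 Adhesion/invasion was scored as fixed GFP-labeled SKOV3ip1 cell counts (488/509 nm), normalized to DMSO and tomatine controls. Cancer cells in serum-free medium, with four compound doses (0.36-46 umol/L), sat 2 hr at RT then 16 hr at 37 C on a 48 hr fibroblast/mesothelial/ECM culture.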

Activity change, negative = inhibition, inactive:
Cc1ccc(OCc2ccc(-c3nc(C#N)c(N4CCC(C)CC4)o3)o2)cc1 5.2%
CCc1cccc(C)c1NC(=O)C(C)Sc1nc2c(c(=O)[nH]1)CCCC2 (configuration not stated) -7.73%
COc1ccc(CCNC(=O)CCc2c(C)nc3c(c(C)nn3-c3ccccc3)c2C)c(OC)c1 -5.32%
O=C(NCc1ccccc1)c1csc(Nc2ccncn2)n1 19.7%
COC(=O)c1c(C)sc(-c2c(-c3cccc(Cl)c3)[nH]c3c2c(=O)[nH]c(=O)n3C)c1O 11.7%
COc1ccc(C(=O)CN2C(=O)N(c3cc(C)ccc3C)S(=O)(=O)c3ccccc32)cc1 -5.65%
CCc1ccccc1NC(=O)C1CCN(C2=NS(=O)(=O)C(c3ccc(C)c(C)c3)=C2C)CC1 -25.7%
CCCNC(=O)CCC(=O)N1Cc2ccccc2Oc2ncccc21 -6.98%
CCOC(=O)c1c(C)oc2nc(C)nc(NC(C)c3ccccc3)c12 (configuration not stated) 2.84%
Cc1nc2c3ccccc3nc(NNC(=O)CCC(=O)N3CCN(c4ccccc4)CC3)n2n1 2.92%
Cc1cccc(OCC(=O)Nc2ccc3c(c2)nc(CCNC(=O)c2ccco2)n3C)c1 -7.5%
CNC[C@H](O)c1ccc(O)c(O)c1 5.3% [at 92.2 µM]
COc1ccccc1CNC(=O)c1oc2ccc(S(=O)(=O)N3CCCCC3)cc2c1C -11.5%
COc1ccc(NC(=O)c2cc3nc(-c4ccc(C)c(C)c4)cc(C(F)(F)F)n3n2)cc1 -3.12%
CCc1ccccc1NC(=O)c1ccc2c(O)c(S(=O)(=O)c3ccccc3)c(=O)[nH]c2c1 0.656%
COc1ccc(OCC(=O)OCc2cc(=O)n3cc(C)sc3n2)cc1 4.25%
CCOCCCN1C(=O)CN(C2CCCCCC2)C(=O)C1c1ccc(OC(C)C)c(OC)c1 (configuration not stated) -6.52%
COC(=O)[C@H](CCCN=C(N)N)NS(=O)(=O)c1ccc(C)cc1 -4.29%
COc1ccc(NC(=O)CSc2nc(-c3ccc(OC)cc3)[nH]c2-c2ccc(OC)cc2)cc1 -2.3%
Cc1ccc(N(CC(=O)NCc2ccc(Cl)cc2)S(=O)(=O)N(C)C)cc1 8.72%
Cc1ccc(CSc2ncc(Cl)c(C(=O)NCCc3ccc(S(N)(=O)=O)cc3)n2)cc1 -7.52%
COC(=O)c1ccc(Nc2nnc(-c3ccc(C)c(S(=O)(=O)N4CCN(C)CC4)c3)c3ccccc23)cc1 -10.4%
Cc1cccc(CN2C(=O)c3ccccc3S(=O)(=O)c3ccc(C(=O)NCCC4=CCCCC4)cc32)c1 -3.89%
Cc1ccc(C(=O)Nc2cccc(-c3nc4cccnc4s3)c2C)cc1 10.1%
COc1ccc(-c2cc(OC(=O)c3ccc(Cl)cc3)c3c(C)oc(C)c3c(=O)c2)cc1 8.27%
O=C(CC1C(=O)N(c2ccccc2)C(=O)N1CCC1=CCCCC1)Nc1ccc(F)cc1 (configuration not stated) 4.39%
CCCN1CCN(CCNC(=O)Nc2ccc(OC)cc2OC)CC1 12.3%
CC(=O)N1CCN(c2csc3ccc(F)cc3c2=O)CC1 2.45%
CCOc1ccc(NC(=O)N2CCN(S(=O)(=O)c3ccc4c(ccn4C)c3)CC2)cc1 -8.01%
Cc1ccccc1NC(=O)CSc1nc(-c2ccccc2C)nc2cc(=O)[nH]n12 10.5%
Cc1ccc(NC(=O)Cc2ccc(-n3c(C)nc4cccnc43)cc2)cc1C 9.29%
Cc1cc(C)c(NC(=O)C(C)n2nc(-c3ccc(C)c(C)c3)ccc2=O)c(C)c1 (configuration not stated) -16.6%
COc1ccc(-c2cc(C(C)=O)c(C)n2CCC(=O)NCc2ccccc2OC)cc1 18.5%
CCc1ccccc1N(C)C(=O)Cc1c(C(=O)O)c(C)cn1C -4.43%
Brc1cccc(CNCCSc2nnnn2-c2ccccc2)c1 4.79%
Cc1nn(-c2ccccc2)c(OC(=O)C(C)C)c1Sc1ccccc1 -1.66%
COc1ccc(Cn2c(SCc3ccc(C(=O)NC4CCCC4)cc3)nc3ccncc32)cc1 31.6%
CCOC(=O)c1c(C)oc2ncnc(N3CCN(c4ccccc4OC)CC3)c12 -2.87%
CNC(=O)c1cc(Oc2ccc(NC(=O)Nc3ccc(Cl)c(C(F)(F)F)c3)c(F)c2)ccn1 -25.9%
COc1cccc(CNC(=O)CCc2cn(Cc3ccccc3Cl)c3ccccc23)c1 4.59%
CCCCOc1ccc(S(=O)(=O)Nc2ccc(-c3ccc(N4CCCCCC4)nn3)cc2)cc1 5.34%
COC(=O)c1cccc(-n2c(CCC(=O)O)ccc2-c2ccc(OC)cc2)c1 -5.11%
COc1ccc(CCNC(=O)C2(c3cccs3)CCOCC2)cc1OC 2.19%
CCCOc1cccc(C(=O)Nc2cccc(NC(=O)c3ccc(C(C)(C)C)cc3)c2)c1 -12.8%
COc1ccc2[nH]c(C)c(CCNS(=O)(=O)c3cc(F)ccc3OC)c2c1 7.43%
CN(C)c1ccc(C(CNC(=O)c2ccc(C(C)(C)C)cc2)N2CCOCC2)cc1 (configuration not stated) -6.09%
COc1cc(OC)cc(C(=O)Nc2ccccc2-c2nc3ccccc3s2)c1 21.2%

outcome, inactive:
Cc1cc(C)cc(NC(=O)c2sc3nc(-c4cc5ccccc5oc4=O)[nH]c(=O)c3c2C)c1
CC1=C(C(=O)OCc2ccc(C)cc2)C(c2ccccc2Cl)CC(=O)N1 (configuration not stated)
COc1ccc(-c2nc3ccccc3s2)cc1NC(=O)COc1ccc(C)cc1
CCOc1ccc(NC(=O)CSc2nccn2Cc2ccco2)cc1
CCC1CCCCN1S(=O)(=O)c1ccc(C(=O)Nc2sc3c(c2C(=O)NC)CCC3)cc1 (configuration not stated)
CCOC(=O)C1CCN(C(=O)CCS(=O)(=O)c2cc3c(cc2Cl)NC(=O)CO3)CC1
CCc1ccc(C(=O)c2cn(CC(=O)Nc3ccc(F)cc3)c3ccc(OC)cc3c2=O)cc1
COc1ccccc1N(CC(=O)NCCSCc1ccccc1)S(=O)(=O)c1ccc(C)cc1
COCCNC(=O)Cn1nc(N2CCN(c3ccccc3OC)CC2)ccc1=O
Cc1cc(C)cc(OCC(=O)NCCc2nc3ccccc3[nH]2)c1
O=C(COc1ccc2oc3c(c2c1)CCCC3)Nc1ccc(Br)cc1
CCOC(=O)c1cc(-c2ccccc2)n(CCCC(=O)Nc2ccc(C(C)C)cc2)c1C
Cc1ccc(Cl)cc1NC(=O)C(C)n1nnc2sc(-c3ccccc3)cc2c1=O (configuration not stated)
CCCCC(=O)Nc1ccccc1C(=O)OCc1cc(=O)n2nc(C3CCCCC3)sc2n1
COc1cc(-c2ccno2)ccc1S(=O)(=O)N1CCN(c2ccc(C(C)=O)cc2)CC1
